The source gives no read counts; variants with many changes may rest on few reads.

This note sets out measurements from the RNAGym collection of RNA variant scans (doi:10.1093/nar/gkz1192).

To fix the notation:
B1: CPEB3 Ribozyme (parent)
chain: UAACAGGGGGCCACAGCAGAAGCGUUCACGUCGCAGCCCCUGUCAGAUUCUGGUGAAUCUGCGAAUUCUGCUGUAUAUCUC

Variants of B1 are the subject of the data set. The data set is described as follows: self-cleavage, relative activity (ratio to wild type); higher = more cleavage; in vitro, sequencing. An outline of the steps:
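Relative activity was defined as the cleaved/total read fraction for a variant divided by the same fraction for the unmutated ribozyme. CPEB3 self-cleaving ribozyme libraries were made by rounds of error-prone PCR, barcoded, and transcribed in vitro with T7 RNA polymerase for 5 hours at 37°C, and cleavage ran through transcription plus a 15 min DNase I step before EDTA. Illumina sequencing of template-switched reverse transcripts gave the reads, and DNA sequencing mapped the barcodes. Averages come from three batches, using variants with at least 5 reads.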
Regarding UAACAGGGGGCCACAGCAGAAGCGUUCGCGUCGCAGCCCCUGUCAGAUUCCGGUGAAUCUGCGAAUGCUGCUGUAUAUUUC [A28G U51C U67G C79U], the self-cleavage came to 0.13.

As for UAACAGGGGGCCACAGCAGAAGCGUUCGCGUCGCAGCCCCUGUCAGAUUCUGGUGAAUCUGCGAAUUCUGCUGUAAACCUC [A28G U76A U78C], the self-cleavage came out at 0.6.

With UAACAGGGGGCCACAGCAGAAGCGUUCGCGUCGCAGCCCCUGUCAGAUUCUGGUGAAUCCGCGAAUCCUGCUGUAUAUCUC [A28G U60C U67C], the self-cleavage was found to be 0.11.

Regarding UAACAGGGGGCCACAGCAGAAGCGUUCGCGUCGCAGCCCCUGUCAGAUCAUGGUGAAUCUGCGGAUUCUGCUGUAUAUCUC [A28G U49C C50A A64G], the self-cleavage came to 0.13.

Turning to UAACAGGGGGCCACAGCAGAAGCGUUCGCGUCGCAGCCCCUGUCAGAUUCUGGUGAAUCUGCGAAUACAGCUGUUUAUCUC [A28G U67A U69A A75U], the self-cleavage is 0.14.

Turning to UAACAGGGGGCCACAGCAGAAGCGUUCUCGUCGCAGCCCCUGUCAGAUUCUGGUGAGACUGCGAAUUCUGCUGUAUAUCUC [A28U A57G U58A], the self-cleavage was determined as 0.1.

Consider UAACAGGGGGCCACAGCAGAAGCGUUCUCGUCGCAGCCCCUGUCAGAUUCUGGUGUAUCUGCGAGUUCUGCUGUAUAUCUC [A28U A56U A65G], for which the self-cleavage came out at 0.14.

Consider UAACAGGGGGCCACAGCAGAAGCGUUCGCGUCGCAGCCCCUGUCAGAUUCAGGUGAAACUGCGAAUUCUGCUGUAUAUCUG [A28G U51A U58A C81G], for which the self-cleavage was 0.11.

For UAACAGGGGGCCACAGCAGAAGCGUUCGCGUCGCAGCCCCUGUCAGAUUCCGGUGAAGCUGCGAGUUCUGCUGUAUAUCUC [A28G U51C U58G A65G], the self-cleavage came to 0.32.

Regarding UAACAGGGGGCCACAGCAGAAGCGUUCUCGUCGCAGCCCCUGUCUGACUCUGGUGGAUCUGCAGAUUCUGCUGUAUAUCUC [A28U A45U U48C A56G G63A A64G], the self-cleavage was determined as 0.06.

As to UAACAGGGGGCCACAGCAGAAGCGUUCUCGUCGCUGCCCCAGUCAGAUUAUGGCGAAUCUGCGAAUUCGGCUGUAUAUCUC [A28U A35U U41A C50A U54C U69G], the self-cleavage was determined as 0.11.

On to UAACAGGGGGCCACAGCAGAAGCGUUCUCGUCGCAGCCCGUUUCAGAUUCUGGUGAGUCUGCGAAUUCCGCUGUAUAUCUC [A28U C40G G42U A57G U69C], for which the self-cleavage turned out to be 0.12.

In the case of UAACAGGGGGCCACAGCAGAAGCGUUCGCGUCGCAGCCCCUGCCAGAUUCUGGCGAAUCUGCGAAUUCGGCUGUAUAUCUC [A28G U43C U54C U69G], the self-cleavage stood at 0.18.

Regarding UAACAGGGGGCCACAGCAGAAGCGUUCGCGUCGCAGCCCCUGGCAGAUUCUUGUGAAUCUGCGAAUUCUGCUGUAUAUCUC [A28G U43G G52U], the self-cleavage turned out to be 0.14.

Take UAACAGGGGGCCACAGCAGAAGCGUUCUCGUCGCAGCCCCUGUCAGAUUAUGGUGUAUCUGCGAAUACUGCUGUAUAUCUC [A28U C50A A56U U67A]: the self-cleavage was 0.24.

Turning to UAACAGGGGGCCACAGCAGAAGCGUUCGCGUCGCAGCCCCUGUCAGAUUCAGGUGGAUCUGCGAAUUCUGCUGUAUAUCUC [A28G U51A A56G], the self-cleavage came to 0.2.

For the variant UAACAGGGGGCCACAGCAGAAGCGUUCGCGUCGCAGCCCCCGACAGAUUCUGGUGAAUCUGCGAAUUCUGCUGUAUAUCAC [A28G U41C U43A U80A], the self-cleavage was 0.3.

Turning to UAACAGGGGGCCACAGCAGAAGCGUUCUCGUCGCUACCCCUGACAGAUUCUGGUGAAUCUGCGAAUUCUGCUGUAUACCUC [A28U A35U G36A U43A U78C], the self-cleavage came to 0.33.

Consider UAACAGGGGGCCACAGCAGAAGCGUUCGCGUCGCAGCCCCCGUCAGACUCUGGCGAAUCUGCGAAUUCUGCUGUAUAUCUC [A28G U41C U48C U54C], for which the self-cleavage amounted to 0.18.

In the case of UAACAGGGGGCCACAGCAGAAGCGUUCGCGUCGCAGCCCCUGUCAGAUUCAGGUGAAUCUGCGAAAUCUGCAGUAUAUCUC [A28G U51A U66A U72A], the self-cleavage was determined as 0.21.

For UAACAGGGGGCCACAGCAGAAGCGUUCUCGUCGCGGCCCCUGUCAGAUUCUGGUGAAUCCGCGAAUUCUGCUGUAUAUCUC [A28U A35G U60C], the self-cleavage stood at 0.81.

UAACAGGGGGCCACAGCAGAAGCGUUCGCGUCGCAGCCCCUGUCAGAUACUGGUGGAUCUGCGAGUUCUGCAGAAUAACUC [A28G U49A A56G A65G U72A U74A U78A]: the self-cleavage was 0.04.

Regarding UAACAGGGGGCCACAGCAGAAGCGUUCGCGUCGCAGCCCCUGUCAGACUCCGGUGAAUCUGCGGAUUCUGCUGUAUAUCUC [A28G U48C U51C A64G], the self-cleavage was 0.07.

Turning to UAACAGGGGGCCACAGCAGAAGCGUUCGCGUCGCAGCCCCUGUCAGAUCCCGGUGAAUCUGCGAAUUCUGCUGUAUAUCUC [A28G U49C U51C], the self-cleavage was 0.48.

Regarding UAACAGGGGGCCACAGCAGAAGCGUUCUCGUCGCAGCCCCUGUCGGAUUCUGGUGAAUCUGCGAAUUCUGCUGUUUAUCUC [A28U A45G A75U], the self-cleavage stood at 0.54.

On to UAACAGGGGGCCACAGCAGAAGCGUUCGCGUCGCAGCCCCUGCCAGAUUCUGGUGAAUCUGCAAAUUCUGCUGUAUAUCGC [A28G U43C G63A U80G], for which the self-cleavage amounted to 0.38.

Consider UAACAGGGGGCCACAGCAGAAGCGUUCGCGUCGCAGCCCCUGUCAGAUUCUGGUGAAUCAGCGAAUUCUGCCGUAUAUCUC [A28G U60A U72C], for which the self-cleavage amounted to 0.06.

In the case of UAACAGGGGGCCACAGCAGAAGCGUUCUCGUCGCGGCCCCUGCCAGAUUCUGGUGUAUCUGCGAAUGCUGCUGUAUAUCUC [A28U A35G U43C A56U U67G], the self-cleavage is 0.23.

For the variant UAACAGGGGGCCACAGCAGAAGCGUUCUCGUCGCGGCCCCUGUCAGAUUCUGGUGAAUCUGCGAAUUCUGCUGUAUAGCUC [A28U A35G U78G], the self-cleavage turned out to be 1.28.

For UAACAGGGGGCCACAGCAGAAGCGUUCUCGUCGCAGCCCCUGUCUGAUUCUGGUGAAUCUGCGAACUCUGCUGUAUAUCUC [A28U A45U U66C], the self-cleavage came out at 0.08.

In the case of UAACAGGGGGCCACAGCAGAAGCGUUCGCGUCGCAGCCCCUGUCAGAUUCUGGUGAAUCUGCGAAUUCUGCCGUAUAUUUC [A28G U72C C79U], the self-cleavage stood at 0.9.

For UAACAGGGGGCCACAGCAGAAGCGUUCGCGUCGCAGCCCCUGUCAGACUCUGGUCAAGCUGCGAAUUCUGCGGUAUAUCUC [A28G U48C G55C U58G U72G], the self-cleavage was found to be 0.08.

Take UAACAGGGGGCCACAGCAGAAGCGUUCGCGUCGCAGCCCCUGACAGAUUCUGGUGAAUCAGCGAAUUCUGCAGUAUAUCUC [A28G U43A U60A U72A]: the self-cleavage came out at 0.16.

Regarding UAACAGGGGGCCACAGCAGAAGCGUUCGCGUCGCAGCCCCUGUCAGAUUCUGGUGAAUCUGCGAAUCCUGCUGUAUAACAC [A28G U67C U78A U80A], the self-cleavage is 0.14.
